# In the supplement of paper PMC8728848:
# The list shows a part of the results.
# B1: PX9937A-bvu-521-23-521 (Bacteroides vulgatus) (protein)
# chain: LDLAPEDYYGAGNFWKEASQPKAFMLGLHAQLRSYYDMFYTLGELRGGTQRVGTSSLNTSLNYADIRSQNISEDIPGISNWNGLYSPIMQVNHFIQEVENGCTFLDDATRSRYLGQAYGMRALYYFMLYRTFGGVPLITKVDILDGKPSADKFYVERATPEATMEFIKADINKSENYFGNNTSFDAYDWSRYATLMLKAEIYMWAAKVSITGFTATGATDLQTAKTALSGIIGHFELMDNFASIFSCDNKKNTEIIFAMPFIEGEASNDGGRFLYQDAVFLGQAYGRNGKVIEKDTLNLKGTGGVFRDEYTEDFWKTFKEGDSRRDATFMEYYMKNDNGTLSEFGCVMKKRIGTINSNDNRIYISDIPVYRYADALLMMAEIENGLNNPCASYINEVRKRAYGDTFEENKYTEGSYAENELAILQERDKEFVSEGKRWFDVLRMHDASGRSLVFSANANYPGTNPILGTEEAYKMLWPVNIGTLNVNPLLTQTPGYGKK
# Assays:
# Assay in all cases: glycan array binding signal (z-score within array); higher = stronger binding
# Conditions in all cases: glycan notation: IUPAC condensed, linker removed
# Kdn(a2-3)Gal(b1-4)Glc = target: Kdn(a2-3)Gal(b1-4)Glc
# Method in brief: (§1)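 Columns mapping to the same glycan were averaged after glycan names were converted to IUPAC-condensed notation. The data come from 3228 arrays in the Consortium for Functional Glycomics database, limited to those with an available protein sequence. Binding is reported as a within-array Z-score averaged across arrays of one protein sequence and across linkers.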
# Kdn(a2-3)Gal(b1-4)GlcNAc = target: Kdn(a2-3)Gal(b1-4)GlcNAc
# Method in brief: as §1
# [1] = target: Kdn(a2-3)Gal(b1-4)[Fuc(a1-3)]GlcNAc
# Method in brief: as §1
# Kdn(a2-6)Gal(b1-4)GlcNAc = target: Kdn(a2-6)Gal(b1-4)GlcNAc
# Method in brief: as §1
# [2] = target: Man(a1-2)Man(a1-2)Man(a1-3)Man
# Method in brief: as §1
# [3] = target: Man(a1-2)Man(a1-2)Man(a1-6)[Man(a1-3)]Man
# Method in brief: as §1
# Man(a1-2)Man(a1-3)Man = target: Man(a1-2)Man(a1-3)Man
# Method in brief: as §1
# [4] = target: Man(a1-2)Man(a1-3)[Man(a1-2)Man(a1-6)]Man
# Method in brief: as §1
# [5] = target: Man(a1-2)Man(a1-3)[Man(a1-2)Man(a1-6)]Man(a1-6)[Man(a1-2)Man(a1-2)Man(a1-3)]Man
# Method in brief: as §1
# [6] = target: Man(a1-2)Man(a1-3)[Man(a1-2)Man(a1-6)]Man(a1-6)[Man(a1-2)Man(a1-2)Man(a1-3)]Man(b1-4)GlcNAc(b1-4)GlcNAc
# Method in brief: as §1
# [7] = target: Man(a1-2)Man(a1-3)[Man(a1-6)]Man(a1-6)[Man(a1-2)Man(a1-3)]Man(b1-4)GlcNAc(b1-4)GlcNAc
# Method in brief: as §1
# [8] = target: Man(a1-2)Man(a1-6)[Man(a1-3)]Man(a1-6)[Man(a1-2)Man(a1-2)Man(a1-3)]Man
# Method in brief: as §1
# [9] = target: Man(a1-2)Man(a1-6)[Man(a1-3)]Man(a1-6)[Man(a1-2)Man(a1-2)Man(a1-3)]Man(b1-4)GlcNAc(b1-4)GlcNAc
# Method in brief: as §1
# Man(a1-3)[Man(a1-6)]Man = target: Man(a1-3)[Man(a1-6)]Man
# Method in brief: as §1
# [10] = target: Man(a1-3)[Man(a1-6)]Man(a1-6)[Man(a1-2)Man(a1-3)]Man(b1-4)GlcNAc(b1-4)GlcNAc
# Method in brief: as §1
# [11] = target: Man(a1-3)[Man(a1-6)]Man(a1-6)[Man(a1-3)]Man
# Method in brief: as §1
# [12] = target: Man(a1-3)[Man(a1-6)]Man(a1-6)[Man(a1-3)]Man(b1-4)GlcNAc(b1-4)GlcNAc
# Method in brief: as §1
# [13] = target: Man(a1-3)[Man(a1-6)]Man(b1-4)GlcNAc(b1-4)GlcNAc
# Method in brief: as §1
# [14] = target: Man(a1-3)[Man(a1-6)]Man(b1-4)GlcNAc(b1-4)[Fuc(a1-6)]GlcNAc
# Method in brief: as §1
# Man(a1-6)Man = target: Man(a1-6)Man
# Method in brief: as §1
# Man(b1-4)GlcNAc = target: Man(b1-4)GlcNAc
# Method in brief: as §1
# MurNAc(b1-4)GlcNAc = target: MurNAc(b1-4)GlcNAc
# Method in brief: as §1
# Neu5Ac(a2-3)Gal = target: Neu5Ac(a2-3)Gal
# Method in brief: as §1
# [15] = target: Neu5Ac(a2-3)Gal(b1-3)GalNAc
# Method in brief: as §1
# [16] = target: Neu5Ac(a2-3)Gal(b1-3)GalNAc(b1-3)Gal(a1-4)Gal(b1-4)Glc
# Method in brief: as §1
# [17] = target: Neu5Ac(a2-3)Gal(b1-3)GalNAc(b1-4)[Neu5Ac(a2-3)]Gal(b1-4)Glc
# Method in brief: as §1
# [18] = target: Neu5Ac(a2-3)Gal(b1-3)GalNAc(b1-4)[Neu5Ac(a2-8)Neu5Ac(a2-3)]Gal(b1-4)Glc
# Method in brief: as §1
# [19] = target: Neu5Ac(a2-3)Gal(b1-3)GalNAc6S
# Method in brief: as §1
# [20] = target: Neu5Ac(a2-3)Gal(b1-3)GlcNAc
# Method in brief: as §1
# [21] = target: Neu5Ac(a2-3)Gal(b1-3)GlcNAc(b1-2)Man
# Method in brief: as §1
# [22] = target: Neu5Ac(a2-3)Gal(b1-3)GlcNAc(b1-2)Man(a1-3)[GlcNAc(b1-4)][Neu5Ac(a2-3)Gal(b1-3)GlcNAc(b1-2)Man(a1-6)]Man(b1-4)GlcNAc(b1-4)GlcNAc
# Method in brief: as §1
# [23] = target: Neu5Ac(a2-3)Gal(b1-3)GlcNAc(b1-2)Man(a1-3)[Neu5Ac(a2-3)Gal(b1-3)GlcNAc(b1-2)Man(a1-6)]Man(b1-4)GlcNAc(b1-4)GlcNAc
# Method in brief: as §1
# [24] = target: Neu5Ac(a2-3)Gal(b1-3)GlcNAc(b1-3)Gal(b1-3)GlcNAc
# Method in brief: as §1
# [25] = target: Neu5Ac(a2-3)Gal(b1-3)GlcNAc(b1-3)Gal(b1-4)GlcNAc
# Method in brief: as §1
# [26] = target: Neu5Ac(a2-3)Gal(b1-3)GlcNAc(b1-3)GalNAc
# Method in brief: as §1
# [27] = target: Neu5Ac(a2-3)Gal(b1-3)GlcNAc(b1-4)Gal(b1-4)Glc
# Method in brief: as §1
# [28] = target: Neu5Ac(a2-3)Gal(b1-3)GlcNAc(b1-6)GalNAc
# Method in brief: as §1
# [29] = target: Neu5Ac(a2-3)Gal(b1-3)GlcNAc6S
# Method in brief: as §1
binder,measurement,setting,value
B1,glycan array binding signal (z-score),Kdn(a2-3)Gal(b1-4)Glc,-0.287
same,glycan array binding signal (z-score),Kdn(a2-3)Gal(b1-4)GlcNAc,-0.653
same,glycan array binding signal (z-score),[1],-0.421
same,glycan array binding signal (z-score),Kdn(a2-6)Gal(b1-4)GlcNAc,-0.698
same,glycan array binding signal (z-score),[2],-0.541
same,glycan array binding signal (z-score),[3],-0.275
same,glycan array binding signal (z-score),Man(a1-2)Man(a1-3)Man,0.085
same,glycan array binding signal (z-score),[4],-0.412
same,glycan array binding signal (z-score),[5],-0.213
same,glycan array binding signal (z-score),[6],-0.427
same,glycan array binding signal (z-score),[7],-0.525
same,glycan array binding signal (z-score),[8],-0.338
same,glycan array binding signal (z-score),[9],-0.204
same,glycan array binding signal (z-score),Man(a1-3)[Man(a1-6)]Man,-0.427
same,glycan array binding signal (z-score),[10],-0.406
same,glycan array binding signal (z-score),[11],-0.289
same,glycan array binding signal (z-score),[12],-0.628
same,glycan array binding signal (z-score),[13],-0.247
same,glycan array binding signal (z-score),[14],-0.305
same,glycan array binding signal (z-score),Man(a1-6)Man,4.8
same,glycan array binding signal (z-score),Man(b1-4)GlcNAc,2.1
same,glycan array binding signal (z-score),MurNAc(b1-4)GlcNAc,-0.6
same,glycan array binding signal (z-score),Neu5Ac(a2-3)Gal,-0.54
same,glycan array binding signal (z-score),[15],-0.395
same,glycan array binding signal (z-score),[16],0.305
same,glycan array binding signal (z-score),[17],-0.401
same,glycan array binding signal (z-score),[18],0.038
same,glycan array binding signal (z-score),[19],-0.229
same,glycan array binding signal (z-score),[20],-0.441
same,glycan array binding signal (z-score),[21],0.014
same,glycan array binding signal (z-score),[22],-0.321
same,glycan array binding signal (z-score),[23],-0.549
same,glycan array binding signal (z-score),[24],0.541
same,glycan array binding signal (z-score),[25],-0.227
same,glycan array binding signal (z-score),[26],-0.108
same,glycan array binding signal (z-score),[27],-0.417
same,glycan array binding signal (z-score),[28],-0.64
same,glycan array binding signal (z-score),[29],-0.431
